Reference: the supplement of paper PMC10723795
This is one part of the list.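 Rule for the calls: active = more than 2 SD below the DMSO mean: under 0.85 at 10 µM or 0.885 at 1 µM; inactive = the rest.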 Most values come without repeats; read them as rough.

Tested on: RPE1
Test: nucleolar normality score relative to DMSO (fraction of DMSO control); RPE1 is a non-cancer human cell line; higher = more normal nucleoli (less nucleolar stress)
Details: 24 h
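Note: fixed cells immunolabelled for nucleolin and UBF, 40 image fields per well in 384-well plates, per-cell score = nucleolin nucleolar/nucleoplasm intensity ratio divided by the matching UBF ratio.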

Row | SMILES | nucleolar normality score (1 µM) | nucleolar normality score (10 µM)
1 | O=C(CBr)N1CC([N+](=O)[O-])([N+](=O)[O-])C1 | inactive: 0.888 | inactive: 1.03
2 | COc1cc(C2c3cc4c(cc3C(O)C3COC(=O)C23)OCO4)cc(OC)c1O (stereo not drawn) | inactive: 1.09 | inactive: 1.02
3 | C=C1C[C@@H]2[C@H](CC[C@]3(C)C(=O)CC[C@@H]23)[C@@]2(C)C=CC(=O)C=C12 [Exemestane] | inactive: 1 | inactive: 1.06
4 | O=P1(N(CCCl)CCCl)NCCCO1 (stereo not drawn) [Cyclophosphamide Monohydrate] | inactive: 0.997 | inactive: 1.07
5 | O=C(Nc1ccccc1)Nc1ccnc(Cl)c1 [Forchlorfenuron (KT-30, CPPU)] | inactive: 1.03 | inactive: 1.03
6 | N#CC(C#N)=NNc1ccc(OC(F)(F)F)cc1 | inactive: 1.01 | inactive: 1.05
7 | Cc1sc2c(c1C)C(c1ccc(Cl)cc1)=N[C@@H](CC(=O)OC(C)(C)C)c1nnc(C)n1-2 | inactive: 1.05 | inactive: 1.07
8 | O=C1C2CCN(CC2)C1(CO)CO | inactive: 0.996 | inactive: 1.04
9 | C=C1CCC2C(C=C(C)C(=O)C3(O)CC(C)C(O)C3C1O)C2(C)C (stereo not drawn) [Lathyrol] | inactive: 1.08 | inactive: 1.04
10 | Cc1sc2c(c1C)C(c1ccc(Cl)cc1)=NC(CC(N)=O)c1nnc(C)n1-2 (stereo not drawn) | inactive: 1.14 | inactive: 1.04
11 | C/C(O)=C(\C#N)C(=O)Nc1cc(Br)ccc1Br | inactive: 1.01 | inactive: 1.03
12 | Cc1cc2c(C(C)C)c(O)c(O)c(C=O)c2c(O)c1-c1c(C)cc2c(C(C)C)c(O)c(O)c(C=O)c2c1O [gossypol-Acetic acid] | inactive: 1 | inactive: 0.877
13 | Cc1cc2c(C(C)C)c(O)c(O)c(C=O)c2c(O)c1-c1c(C)cc2c(C(C)C)c(O)c(O)c(C=O)c2c1O | inactive: 1.02 | inactive: 0.896
14 | O=c1[nH]c2ccc(Cl)cc2c(N[C@@H]2CN3CCC2CC3)c1-c1nc2ccccc2[nH]1 | active: 0.338 | active: 0.24
15 | C=CC1CN2CCC1CC2C(O)c1ccnc2ccccc12 (stereo not drawn) | inactive: 1.06 | inactive: 1.09
16 | COC1=C[C@]23CCCN2CCc2cc4c(cc2[C@@H]3[C@@H]1O)OCO4 [Cephalotaxine] | inactive: 1.07 | inactive: 0.91
17 | C[C@]12CCC(=O)C(O)=C1CC[C@@H]1[C@@H]2CC[C@]2(C)C(=O)CC[C@@H]12 [Formestane] | inactive: 1.04 | inactive: 1.08
18 | CCOc1ccccc1-n1c(C(C)N2CCN(C(=O)COc3ccc(Cl)cc3)CC2)nc2ccccc2c1=O (stereo not drawn) [Erastin] | inactive: 0.933 | inactive: 1
19 | Cc1sc2c(c1C)C(c1ccc(Cl)cc1)=N[C@@H](CC(=O)Nc1ccc(O)cc1)c1nnc(C)n1-2 | active: 0.858 | inactive: 0.958
